Assay results as given in PubChem BioAssay AID2427 (National Center for Advancing Translational Sciences (NCATS), 2010).
The other results are listed elsewhere or left out. Shown are side measurements of this screen, not its main read-out; they come without a call. The list favours compounds with an active or inconclusive main result.

target: 15-hydroxyprostaglandin dehydrogenase [NAD(+)] (Homo sapiens) (UniProt P15428); assay: Thermal Shift Assay for Inhibitors of HPGD (15-Hydroxyprostaglandin Dehydrogenase); conditions: Recombinant HPGD thermal shift, SYPRO orange DSF, measured here: delta Tm with NADH cofactor, at 250 µM, stronger effect = higher value
UniProt P15428, sequence (P15428 whole entry, looked up): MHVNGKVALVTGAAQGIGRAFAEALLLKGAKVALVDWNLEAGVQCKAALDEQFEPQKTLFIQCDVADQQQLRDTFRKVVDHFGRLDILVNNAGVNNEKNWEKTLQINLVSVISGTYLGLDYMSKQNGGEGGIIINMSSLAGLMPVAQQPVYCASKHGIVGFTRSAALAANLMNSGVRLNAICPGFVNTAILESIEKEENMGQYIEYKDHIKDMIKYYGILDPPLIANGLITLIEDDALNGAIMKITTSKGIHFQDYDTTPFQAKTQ
Method: Assay Overview: Human 15-Hydroxyprostaglandin dehydrogenase (HPGD) catalyzes the inactivation of prostaglandin E2, and plays a major role in cancer biology by antagonizing the oncogenic potential of cyclooxygenase type 2 (COX2). Studies to assess the stability of human 15-PGDH in presence of compounds was performed as described (Niesen et al., 2007) with variations. References 1. Myung SJ, Rerko RM, Yan M, Platzer P, Guda K, Dotson A, Lawrence E, Dannenberg AJ, Lovgren AK, Luo G, Pretlow TP, Newman RA, Willis J, Dawson D, Markowitz SD. 15-Hydroxyprostaglandin dehydrogenase is an in vivo suppressor of colon tumorigenesis. Proc Natl Acad Sci U S A. 2006 Aug 8;103(32):12098-102. 2. Yan M, Rerko RM, Platzer P, Dawson D, Willis J, Tong M, Lawrence E, Lutterbaugh J, Lu S, Willson JK, Luo G, Hensold J, Tai HH, Wilson K, Markowitz SD. 15-Hydroxyprostaglandin dehydrogenase, a COX-2 oncogene antagonist, is a TGF-beta-induced suppressor of human gastrointestinal cancers. Proc Natl Acad Sci U S A. 2004 Dec 14;101(50):17468-73. 3. Yang L, Amann JM, Kikuchi T, Porta R, Guix M, Gonzalez A, Park KH, Billheimer D, Arteaga CL, Tai HH, Dubois R, Carbone DP, Johnson DH. Inhibition of Epidermal Growth Factor Receptor Signaling Elevates 15-Hydroxyprostaglandin Dehydrogenase in Non-Small-Cell Lung Cancer. Cancer Res. 2007 Jun 15;67(12):5587-5593. 4. Niesen FH, Berglund H, Vedadi M: The use of differential scanning fluorimetry to detect ligand interactions that promote protein stability. Nature protocols 2007; 2:2212-2221 NIH Chemical Genomics Center [NCGC] Structural Genomics Consortium [SGC]
HPGD was diluted to a final assay concentration of 1 uM in 100 mM Tris buffer, pH 8.0, containing 0.01% Tween-20 and 1:1000 SYPRO orange dye. The final assay volume is 10 ul, with or without 200 uM of either NAD+ or NADH. Compounds were added 1:5 from appropriate stock solutions in 10% (v/v) DMSO to comprise either 50 or 250 uM final concentrations. Heat denaturation curves were recorded using a RT-PCR instrument (Mx3005p, Agilent) applying a temperature gradient of 2 degree C/min. Analysis of the data was performed using DSF Analysis vers. 2.5 (ftp://ftp.sgc.ox.ac.uk/pub/biophysics) and Prism 5.0 (GraphPad Software, Inc.)

Compound | thermal shift (delta Tm) [C]
CC1CCCN(C(=O)c2sc3cc([N+](=O)[O-])ccc3c2Cl)C1 (stereo unspecified) | 8.4
O=C(Nc1ccc(C(=O)N2CCCCC2)cc1)c1ccc(Br)cc1 | 7.1
O=C(NCCc1ccccc1)C1CCC(CNc2c(N3CCCCC3)c(=O)c2=O)CC1 (stereo unspecified) | 1.7
COc1ccccc1C(=O)Nc1ccc(C(=O)N2CCCC2)cc1 | 4.7
Cc1ccccc1C(=O)N1CCc2ccccc2C1 | 2.2
O=C(c1ccc(CSc2ccccc2)cc1)N1CCCCCC1 | 7.8
Cc1ccc(CNC(=O)c2ccc(Cl)cc2[N+](=O)[O-])cc1 | 5
CC1CCN(C(=O)c2cc3nc(C4CC4)cc(C(F)(F)F)n3n2)CC1 | 4.8
O=C(c1sc2cc([N+](=O)[O-])ccc2c1Cl)N1CCCCC1 | 6.4
CC1=CCC2C(=O)N(c3ccc(C(=O)N4CCCCCC4)cc3)C(=O)C2C1 (stereo unspecified) | 6
O=c1c2ccccc2sn1-c1cc(S(=O)(=O)N2CCOCC2)ccc1N1CCCC1 | 0
CC1CCCC(C)N1C(=O)c1cc2ncc(CCCl)cn2n1 (stereo unspecified) | 6.4
COCCNC(=O)c1cc2oc3ccccc3c2n1C | 2.9
Cc1ccc(S(=O)(=O)NCc2ccc(C(=O)N3CCc4ccccc4C3)cc2)cc1 | 1.6
CC1CCN(C(=O)c2ccc(CSc3ccc(Cl)cc3)cc2)CC1 | 7.1
O=C(c1ccc(N2C(=O)C3CCCCC3C2=O)cc1)N1CCCCC1 (stereo unspecified) | 6.7
